From publication PMC6433973
Results are given in words; binding and its absence hold for the method and conditions named. For part of these data: In cells and extracts the contact can be indirect. Some entries that bind do so weakly or less than the wild type. Values belong to the molecule of their own block, whether it stands above or below them.

Tests used:
[1] = target: T1, endogenous FOXM1 (human (endogenous in HeLa and C33A)) (UniProt Q08050); experiment: co-IP; C33A cell lysate, endogenous proteins; IP with anti-FOXM1 (C20), control rabbit anti-ETS2; blot for EPS8
T1 sequence: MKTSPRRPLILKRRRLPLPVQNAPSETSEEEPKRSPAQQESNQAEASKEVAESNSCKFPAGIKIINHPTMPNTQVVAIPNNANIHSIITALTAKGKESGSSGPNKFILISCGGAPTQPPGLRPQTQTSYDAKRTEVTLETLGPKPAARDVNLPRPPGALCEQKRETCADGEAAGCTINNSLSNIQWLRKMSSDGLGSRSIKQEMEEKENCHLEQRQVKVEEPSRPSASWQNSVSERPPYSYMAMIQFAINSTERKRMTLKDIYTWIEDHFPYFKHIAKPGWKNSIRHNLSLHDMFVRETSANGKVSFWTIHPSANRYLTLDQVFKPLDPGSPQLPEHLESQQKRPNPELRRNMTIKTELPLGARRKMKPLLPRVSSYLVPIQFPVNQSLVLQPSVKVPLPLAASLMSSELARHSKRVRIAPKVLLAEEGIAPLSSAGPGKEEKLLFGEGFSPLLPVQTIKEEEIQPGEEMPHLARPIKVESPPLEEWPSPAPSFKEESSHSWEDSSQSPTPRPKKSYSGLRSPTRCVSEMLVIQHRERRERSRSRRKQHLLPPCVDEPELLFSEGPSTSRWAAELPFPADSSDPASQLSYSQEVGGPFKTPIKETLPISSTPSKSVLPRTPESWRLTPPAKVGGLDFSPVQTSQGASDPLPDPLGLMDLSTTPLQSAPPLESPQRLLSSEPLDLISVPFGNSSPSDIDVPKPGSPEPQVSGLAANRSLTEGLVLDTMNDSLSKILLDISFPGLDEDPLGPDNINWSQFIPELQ

[2] = target: T1, endogenous FOXM1 (human (endogenous in HeLa and C33A)); experiment: co-IP; HeLa cell lysate, endogenous proteins; IP with anti-FOXM1 (C20) and blot for EPS8, and reverse IP with anti-EPS8 (610143) and blot for FOXM1; control antibodies anti-ETS2 and anti-p21
[3] = target: full-length human EPS8 (Gal4 two-hybrid bait) (human) (UniProt Q12929); experiment: two-hybrid; Gal4-based Matchmaker system (Clontech); EPS8 constructs as bait in pGBT9, full-length FOXM1 as prey in pGAD424; growth on SC medium lacking leucine, tryptophan and histidine
[4] = target: EPS8(2-590) (Gal4 two-hybrid bait) (human) (UniProt Q12929); experiment: as above
[5] = target: T2, EPS8(2-528) (Gal4 two-hybrid bait) (human) (UniProt Q12929); experiment: as above
T2 sequence: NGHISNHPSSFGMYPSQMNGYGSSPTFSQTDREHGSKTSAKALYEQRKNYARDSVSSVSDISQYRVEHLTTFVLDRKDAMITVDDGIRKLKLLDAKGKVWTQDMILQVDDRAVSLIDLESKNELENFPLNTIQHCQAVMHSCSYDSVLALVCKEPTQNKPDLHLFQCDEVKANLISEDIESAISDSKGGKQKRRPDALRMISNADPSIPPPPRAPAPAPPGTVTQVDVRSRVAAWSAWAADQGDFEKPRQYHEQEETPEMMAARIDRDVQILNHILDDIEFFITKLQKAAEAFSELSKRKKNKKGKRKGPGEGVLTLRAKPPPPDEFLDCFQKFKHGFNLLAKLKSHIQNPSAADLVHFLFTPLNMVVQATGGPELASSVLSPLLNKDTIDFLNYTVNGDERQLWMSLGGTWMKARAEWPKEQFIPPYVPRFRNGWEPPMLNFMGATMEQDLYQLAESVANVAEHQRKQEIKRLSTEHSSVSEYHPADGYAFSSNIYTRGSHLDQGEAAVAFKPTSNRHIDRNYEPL

[6] = target: T3, EPS8(2-264) (Gal4 two-hybrid bait) (human) (UniProt Q12929); experiment: as above
T3 sequence: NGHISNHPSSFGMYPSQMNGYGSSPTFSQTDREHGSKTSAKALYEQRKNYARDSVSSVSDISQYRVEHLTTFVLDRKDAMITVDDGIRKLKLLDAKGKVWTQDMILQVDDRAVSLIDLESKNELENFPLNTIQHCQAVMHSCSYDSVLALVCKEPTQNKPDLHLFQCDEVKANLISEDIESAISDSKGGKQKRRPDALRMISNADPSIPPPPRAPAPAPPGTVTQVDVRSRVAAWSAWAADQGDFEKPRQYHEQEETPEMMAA

[7] = target: T4, EPS8 bait encompassing the N-terminus up to amino acid 370 (Gal4 two-hybrid bait) (human) (UniProt Q12929); experiment: as above
T4 sequence: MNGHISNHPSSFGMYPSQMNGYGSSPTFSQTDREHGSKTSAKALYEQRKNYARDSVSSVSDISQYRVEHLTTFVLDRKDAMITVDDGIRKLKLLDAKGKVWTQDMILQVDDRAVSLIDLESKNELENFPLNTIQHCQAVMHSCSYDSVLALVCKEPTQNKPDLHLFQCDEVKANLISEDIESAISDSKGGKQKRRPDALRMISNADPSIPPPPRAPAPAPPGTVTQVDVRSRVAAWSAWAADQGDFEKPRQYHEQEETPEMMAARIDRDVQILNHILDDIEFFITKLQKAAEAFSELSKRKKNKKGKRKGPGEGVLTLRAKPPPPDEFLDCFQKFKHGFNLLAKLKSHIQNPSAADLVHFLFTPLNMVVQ

[8] = target: endogenous EPS8 (human (endogenous in HeLa and C33A)) (UniProt Q12929); experiment: co-IP; HeLa cell lysate, endogenous proteins; IP with anti-FOXM1 (C20) and blot for EPS8, and reverse IP with anti-EPS8 (610143) and blot for FOXM1; control antibodies anti-ETS2 and anti-p21

binding [1]: binds | binding [2]: binds
Molecule: endogenous EPS8 (from UniProt Q12929 1-822)

binding [3]: binds | binding [4]: binds | binding [5]: binds | binding [6]: no binding | binding [7]: no binding
B1: full-length human FOXM1c (Gal4 two-hybrid prey) (protein, UniProt Q08050-1 1-763)
chain: MKTSPRRPLILKRRRLPLPVQNAPSETSEEEPKRSPAQQESNQAEASKEVAESNSCKFPAGIKIINHPTMPNTQVVAIPNNANIHSIITALTAKGKESGSSGPNKFILISCGGAPTQPPGLRPQTQTSYDAKRTEVTLETLGPKPAARDVNLPRPPGALCEQKRETCADGEAAGCTINNSLSNIQWLRKMSSDGLGSRSIKQEMEEKENCHLEQRQVKVEEPSRPSASWQNSVSERPPYSYMAMIQFAINSTERKRMTLKDIYTWIEDHFPYFKHIAKPGWKNSIRHNLSLHDMFVRETSANGKVSFWTIHPSANRYLTLDQVFKPLDPGSPQLPEHLESQQKRPNPELRRNMTIKTELPLGARRKMKPLLPRVSSYLVPIQFPVNQSLVLQPSVKVPLPLAASLMSSELARHSKRVRIAPKVLLAEEGIAPLSSAGPGKEEKLLFGEGFSPLLPVQTIKEEEIQPGEEMPHLARPIKVESPPLEEWPSPAPSFKEESSHSWEDSSQSPTPRPKKSYSGLRSPTRCVSEMLVIQHRERRERSRSRRKQHLLPPCVDEPELLFSEGPSTSRWAAELPFPADSSDPASQLSYSQEVGGPFKTPIKETLPISSTPSKSVLPRTPESWRLTPPAKVGGLDFSPVQTSQGASDPLPDPLGLMDLSTTPLQSAPPLESPQRLLSSEPLDLISVPFGNSSPSDIDVPKPGSPEPQVSGLAANRSLTEGLVLDTMNDSLSKILLDISFPGLDEDPLGPDNINWSQFIPELQ

binding [8]: binds
B2: endogenous FOXM1 (protein, UniProt Q08050 1-763)
chain: MKTSPRRPLILKRRRLPLPVQNAPSETSEEEPKRSPAQQESNQAEASKEVAESNSCKFPAGIKIINHPTMPNTQVVAIPNNANIHSIITALTAKGKESGSSGPNKFILISCGGAPTQPPGLRPQTQTSYDAKRTEVTLETLGPKPAARDVNLPRPPGALCEQKRETCADGEAAGCTINNSLSNIQWLRKMSSDGLGSRSIKQEMEEKENCHLEQRQVKVEEPSRPSASWQNSVSERPPYSYMAMIQFAINSTERKRMTLKDIYTWIEDHFPYFKHIAKPGWKNSIRHNLSLHDMFVRETSANGKVSFWTIHPSANRYLTLDQVFKPLDPGSPQLPEHLESQQKRPNPELRRNMTIKTELPLGARRKMKPLLPRVSSYLVPIQFPVNQSLVLQPSVKVPLPLAASLMSSELARHSKRVRIAPKVLLAEEGIAPLSSAGPGKEEKLLFGEGFSPLLPVQTIKEEEIQPGEEMPHLARPIKVESPPLEEWPSPAPSFKEESSHSWEDSSQSPTPRPKKSYSGLRSPTRCVSEMLVIQHRERRERSRSRRKQHLLPPCVDEPELLFSEGPSTSRWAAELPFPADSSDPASQLSYSQEVGGPFKTPIKETLPISSTPSKSVLPRTPESWRLTPPAKVGGLDFSPVQTSQGASDPLPDPLGLMDLSTTPLQSAPPLESPQRLLSSEPLDLISVPFGNSSPSDIDVPKPGSPEPQVSGLAANRSLTEGLVLDTMNDSLSKILLDISFPGLDEDPLGPDNINWSQFIPELQ

binding [3]: binds
B3: full-length human FOXM1b (Gal4 two-hybrid prey) (protein, UniProt Q08050-2 1-748)
chain: MKTSPRRPLILKRRRLPLPVQNAPSETSEEEPKRSPAQQESNQAEASKEVAESNSCKFPAGIKIINHPTMPNTQVVAIPNNANIHSIITALTAKGKESGSSGPNKFILISCGGAPTQPPGLRPQTQTSYDAKRTEVTLETLGPKPAARDVNLPRPPGALCEQKRETCADGEAAGCTINNSLSNIQWLRKMSSDGLGSRSIKQEMEEKENCHLEQRQVKVEEPSRPSASWQNSVSERPPYSYMAMIQFAINSTERKRMTLKDIYTWIEDHFPYFKHIAKPGWKNSIRHNLSLHDMFVRETSANGKVSFWTIHPSANRYLTLDQVFKQQKRPNPELRRNMTIKTELPLGARRKMKPLLPRVSSYLVPIQFPVNQSLVLQPSVKVPLPLAASLMSSELARHSKRVRIAPKVLLAEEGIAPLSSAGPGKEEKLLFGEGFSPLLPVQTIKEEEIQPGEEMPHLARPIKVESPPLEEWPSPAPSFKEESSHSWEDSSQSPTPRPKKSYSGLRSPTRCVSEMLVIQHRERRERSRSRRKQHLLPPCVDEPELLFSEGPSTSRWAAELPFPADSSDPASQLSYSQEVGGPFKTPIKETLPISSTPSKSVLPRTPESWRLTPPAKVGGLDFSPVQTSQGASDPLPDPLGLMDLSTTPLQSAPPLESPQRLLSSEPLDLISVPFGNSSPSDIDVPKPGSPEPQVSGLAANRSLTEGLVLDTMNDSLSKILLDISFPGLDEDPLGPDNINWSQFIPELQ
